The list shows a part of the results. The list includes weakly bound sequences.

This experiment addresses T1, MBP-FoxP3dN (UniProt Q99JB6).
T1 sequence: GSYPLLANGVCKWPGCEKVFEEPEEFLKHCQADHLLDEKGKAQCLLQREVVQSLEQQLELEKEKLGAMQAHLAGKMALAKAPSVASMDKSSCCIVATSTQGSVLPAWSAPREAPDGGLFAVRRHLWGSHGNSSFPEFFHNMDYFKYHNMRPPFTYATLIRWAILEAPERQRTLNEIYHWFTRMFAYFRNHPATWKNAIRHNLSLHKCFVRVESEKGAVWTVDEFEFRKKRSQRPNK
Put plainly: PD-seq (MBP pull-down with sequencing). The settings on record: 20 mM Tris-HCl pH 7.5, 100 mM NaCl, 1.5 mM MgCl2, 0.4 uM protein, 0.1 uM dsDNA library, 30 min, room temperature, amylose pull-down; high values mean tight binding; double strand, one strand shown.
“GATGATTGTTCTCCCAGCTGATGAATTAGGGCTCTCGAGTAAACAAATTTTCCTAATCTTTCTGTTCAAGCGCCATCTAC”: the binding signal (RPM ratio (pull-down/input)) stood at 0.379.
With “GATGATTGTTCTCCCAGCTGATGAATTTTTGTAATCGAGTAAACAAATTTTCCTAATCTTTCTGTTCAAGCGCCATCTAC”, the binding signal (RPM ratio (pull-down/input)) came out at 1.32.
In the case of “GATGATTGTTCTCCCAGCTGATGAATTCCCTTTTTCGAGTAAACAAATTTTCCTAATCTTTCTGTTCAAGCGCCATCTAC” it was 0.238; in that of “GATGATTGTTCTCCCAGCTGATGAATTTCCTTATTCGAGTAAACAAATTTTCCTAATCTTTCTGTTCAAGCGCCATCTAC”, 0.329; in that of “GATGATTGTTCTCCCAGCTGATGAATTCTTAACATCGAGTAAACAAATTTTCCTAATCTTTCTGTTCAAGCGCCATCTAC”, 0.41.
The result for “GATGATTGTTCTCCCAGCTGATGAATTGCTGTCATCGAGTAAACAAATTTTCCTAATCTTTCTGTTCAAGCGCCATCTAC” reads 1.17.
As to “GATGATTGTTCTCCCAGCTGATGAATTTCACGACTCGAGTAAACAAATTTTCCTAATCTTTCTGTTCAAGCGCCATCTAC”, the binding signal (RPM ratio (pull-down/input)) came out at 0.3.
The result for “GATGATTGTTCTCCCAGCTGATGAATTACTCTATTCGAGTAAACAAATTTTCCTAATCTTTCTGTTCAAGCGCCATCTAC” reads 0.342; that for “GATGATTGTTCTCCCAGCTGATGAATTCCAATCTTCGAGTAAACAAATTTTCCTAATCTTTCTGTTCAAGCGCCATCTAC”, 0.328; that for “GATGATTGTTCTCCCAGCTGATGAATTCTCGCAATCGAGTAAACAAATTTTCCTAATCTTTCTGTTCAAGCGCCATCTAC”, 2.31.
In the case of “GATGATTGTTCTCCCAGCTGATGAATTACACGATTCGAGTAAACAAATTTTCCTAATCTTTCTGTTCAAGCGCCATCTAC” it was 0.372.
In the case of “GATGATTGTTCTCCCAGCTGATGAATTATCGGAATCGAGTAAACAAATTTTCCTAATCTTTCTGTTCAAGCGCCATCTAC” it was 0.252; in that of “GATGATTGTTCTCCCAGCTGATGAATTCCGAAACTCGAGTAAACAAATTTTCCTAATCTTTCTGTTCAAGCGCCATCTAC”, 0.676.
Take “GATGATTGTTCTCCCAGCTGATGAATTTCACTCCTCGAGTAAACAAATTTTCCTAATCTTTCTGTTCAAGCGCCATCTAC”: the binding signal (RPM ratio (pull-down/input)) is 0.535.
Regarding “GATGATTGTTCTCCCAGCTGATGAATTAAGGCATTCGAGTAAACAAATTTTCCTAATCTTTCTGTTCAAGCGCCATCTAC”, the binding signal (RPM ratio (pull-down/input)) turned out to be 5.16.
In the case of “GATGATTGTTCTCCCAGCTGATGAATTGGCTAGATCGAGTAAACAAATTTTCCTAATCTTTCTGTTCAAGCGCCATCTAC” it was 0.342.
In the case of “GATGATTGTTCTCCCAGCTGATGAATTACAAGATTCGAGTAAACAAATTTTCCTAATCTTTCTGTTCAAGCGCCATCTAC” it was 0.393; in that of “GATGATTGTTCTCCCAGCTGATGAATTTTTAGATTCGAGTAAACAAATTTTCCTAATCTTTCTGTTCAAGCGCCATCTAC”, 0.271.
In the case of “GATGATTGTTCTCCCAGCTGATGAATTGGGACGATCGAGTAAACAAATTTTCCTAATCTTTCTGTTCAAGCGCCATCTAC” it was 0.234; in that of “GATGATTGTTCTCCCAGCTGATGAATTTCATTCGTCGAGTAAACAAATTTTCCTAATCTTTCTGTTCAAGCGCCATCTAC”, 0.473.
Take “GATGATTGTTCTCCCAGCTGATGAATTACTGCTTTCGAGTAAACAAATTTTCCTAATCTTTCTGTTCAAGCGCCATCTAC”: the binding signal (RPM ratio (pull-down/input)) came to 0.824.
In the case of “GATGATTGTTCTCCCAGCTGATGAATTATCATTATCGAGTAAACAAATTTTCCTAATCTTTCTGTTCAAGCGCCATCTAC” it was 0.815.
The result for “GATGATTGTTCTCCCAGCTGATGAATTGGTAGAATCGAGTAAACAAATTTTCCTAATCTTTCTGTTCAAGCGCCATCTAC” reads 0.282; that for “GATGATTGTTCTCCCAGCTGATGAATTGAACGACTCGAGTAAACAAATTTTCCTAATCTTTCTGTTCAAGCGCCATCTAC”, 0.321; that for “GATGATTGTTCTCCCAGCTGATGAATTCCTTCACTCGAGTAAACAAATTTTCCTAATCTTTCTGTTCAAGCGCCATCTAC”, 0.293.
“GATGATTGTTCTCCCAGCTGATGAATTAATTATGTCGAGTAAACAAATTTTCCTAATCTTTCTGTTCAAGCGCCATCTAC”: the binding signal (RPM ratio (pull-down/input)) came to 1.89.
In the case of “GATGATTGTTCTCCCAGCTGATGAATTCCGATGATCGAGTAAACAAATTTTCCTAATCTTTCTGTTCAAGCGCCATCTAC” it was 0.626.
For the sequence “GATGATTGTTCTCCCAGCTGATGAATTCTCGGTCTCGAGTAAACAAATTTTCCTAATCTTTCTGTTCAAGCGCCATCTAC”, the binding signal (RPM ratio (pull-down/input)) was determined as 0.276.
The result for “GATGATTGTTCTCCCAGCTGATGAATTGGACGTTTCGAGTAAACAAATTTTCCTAATCTTTCTGTTCAAGCGCCATCTAC” reads 0.459; that for “GATGATTGTTCTCCCAGCTGATGAATTCATTCGTTCGAGTAAACAAATTTTCCTAATCTTTCTGTTCAAGCGCCATCTAC”, 0.344; that for “GATGATTGTTCTCCCAGCTGATGAATTGGATATTTCGAGTAAACAAATTTTCCTAATCTTTCTGTTCAAGCGCCATCTAC”, 0.826.
The result for “GATGATTGTTCTCCCAGCTGATGAATTTGACATCTCGAGTAAACAAATTTTCCTAATCTTTCTGTTCAAGCGCCATCTAC” reads 1.91; that for “GATGATTGTTCTCCCAGCTGATGAATTTGCCTCATCGAGTAAACAAATTTTCCTAATCTTTCTGTTCAAGCGCCATCTAC”, 1.56.
In the case of “GATGATTGTTCTCCCAGCTGATGAATTATCCCGTTCGAGTAAACAAATTTTCCTAATCTTTCTGTTCAAGCGCCATCTAC” it was 0.326; in that of “GATGATTGTTCTCCCAGCTGATGAATTGACCCGCTCGAGTAAACAAATTTTCCTAATCTTTCTGTTCAAGCGCCATCTAC”, 0.232.
“GATGATTGTTCTCCCAGCTGATGAATTATGCACCTCGAGTAAACAAATTTTCCTAATCTTTCTGTTCAAGCGCCATCTAC”: the binding signal (RPM ratio (pull-down/input)) was 2.61.
Turning to “GATGATTGTTCTCCCAGCTGATGAATTAATCCTTTCGAGTAAACAAATTTTCCTAATCTTTCTGTTCAAGCGCCATCTAC”, the binding signal (RPM ratio (pull-down/input)) worked out at 0.3.
In the case of “GATGATTGTTCTCCCAGCTGATGAATTCGGCGTTTCGAGTAAACAAATTTTCCTAATCTTTCTGTTCAAGCGCCATCTAC” it was 3.28; in that of “GATGATTGTTCTCCCAGCTGATGAATTGATTTGTTCGAGTAAACAAATTTTCCTAATCTTTCTGTTCAAGCGCCATCTAC”, 3.85.
In the case of “GATGATTGTTCTCCCAGCTGATGAATTGTAAAGATCGAGTAAACAAATTTTCCTAATCTTTCTGTTCAAGCGCCATCTAC” it was 0.29; in that of “GATGATTGTTCTCCCAGCTGATGAATTATCTAGCTCGAGTAAACAAATTTTCCTAATCTTTCTGTTCAAGCGCCATCTAC”, 0.241; in that of “GATGATTGTTCTCCCAGCTGATGAATTCAAAGTGTCGAGTAAACAAATTTTCCTAATCTTTCTGTTCAAGCGCCATCTAC”, 0.349.
The result for “GATGATTGTTCTCCCAGCTGATGAATTGCCGGTATCGAGTAAACAAATTTTCCTAATCTTTCTGTTCAAGCGCCATCTAC” reads 0.68; that for “GATGATTGTTCTCCCAGCTGATGAATTAGTTGGTTCGAGTAAACAAATTTTCCTAATCTTTCTGTTCAAGCGCCATCTAC”, 5.37; that for “GATGATTGTTCTCCCAGCTGATGAATTCTCGCCATCGAGTAAACAAATTTTCCTAATCTTTCTGTTCAAGCGCCATCTAC”, 1.86.
Turning to “GATGATTGTTCTCCCAGCTGATGAATTAAACGAGTCGAGTAAACAAATTTTCCTAATCTTTCTGTTCAAGCGCCATCTAC”, the binding signal (RPM ratio (pull-down/input)) turned out to be 0.265.
In the case of “GATGATTGTTCTCCCAGCTGATGAATTAGGCATTTCGAGTAAACAAATTTTCCTAATCTTTCTGTTCAAGCGCCATCTAC” it was 6.35.
Turning to “GATGATTGTTCTCCCAGCTGATGAATTTGAAGGATCGAGTAAACAAATTTTCCTAATCTTTCTGTTCAAGCGCCATCTAC”, the binding signal (RPM ratio (pull-down/input)) stood at 0.22.
Take “GATGATTGTTCTCCCAGCTGATGAATTAATGCGATCGAGTAAACAAATTTTCCTAATCTTTCTGTTCAAGCGCCATCTAC”: the binding signal (RPM ratio (pull-down/input)) was found to be 1.87.
In the case of “GATGATTGTTCTCCCAGCTGATGAATTAACAGACTCGAGTAAACAAATTTTCCTAATCTTTCTGTTCAAGCGCCATCTAC”, the binding signal (RPM ratio (pull-down/input)) turned out to be 0.261.
The result for “GATGATTGTTCTCCCAGCTGATGAATTGTGTAGGTCGAGTAAACAAATTTTCCTAATCTTTCTGTTCAAGCGCCATCTAC” reads 1.87; that for “GATGATTGTTCTCCCAGCTGATGAATTAAAGATGTCGAGTAAACAAATTTTCCTAATCTTTCTGTTCAAGCGCCATCTAC”, 0.327.
Regarding “GATGATTGTTCTCCCAGCTGATGAATTTTAGTGGTCGAGTAAACAAATTTTCCTAATCTTTCTGTTCAAGCGCCATCTAC”, the binding signal (RPM ratio (pull-down/input)) came to 0.466.
The result for “GATGATTGTTCTCCCAGCTGATGAATTTAAGCGTTCGAGTAAACAAATTTTCCTAATCTTTCTGTTCAAGCGCCATCTAC” reads 1.3.
In the case of “GATGATTGTTCTCCCAGCTGATGAATTATCAGGATCGAGTAAACAAATTTTCCTAATCTTTCTGTTCAAGCGCCATCTAC” it was 0.217; in that of “GATGATTGTTCTCCCAGCTGATGAATTGAAAGCGTCGAGTAAACAAATTTTCCTAATCTTTCTGTTCAAGCGCCATCTAC”, 0.385.
The result for “GATGATTGTTCTCCCAGCTGATGAATTAGGATCCTCGAGTAAACAAATTTTCCTAATCTTTCTGTTCAAGCGCCATCTAC” reads 0.342; that for “GATGATTGTTCTCCCAGCTGATGAATTCGGATGGTCGAGTAAACAAATTTTCCTAATCTTTCTGTTCAAGCGCCATCTAC”, 0.433.
For the sequence “GATGATTGTTCTCCCAGCTGATGAATTTTCCTTGTCGAGTAAACAAATTTTCCTAATCTTTCTGTTCAAGCGCCATCTAC”, the binding signal (RPM ratio (pull-down/input)) stood at 0.276.
The result for “GATGATTGTTCTCCCAGCTGATGAATTAGCATGCTCGAGTAAACAAATTTTCCTAATCTTTCTGTTCAAGCGCCATCTAC” reads 1.67; that for “GATGATTGTTCTCCCAGCTGATGAATTTTAATCGTCGAGTAAACAAATTTTCCTAATCTTTCTGTTCAAGCGCCATCTAC”, 0.426.
With “GATGATTGTTCTCCCAGCTGATGAATTCGCCGACTCGAGTAAACAAATTTTCCTAATCTTTCTGTTCAAGCGCCATCTAC”, the binding signal (RPM ratio (pull-down/input)) worked out at 0.246.
On to “GATGATTGTTCTCCCAGCTGATGAATTTGGAGAATCGAGTAAACAAATTTTCCTAATCTTTCTGTTCAAGCGCCATCTAC”, for which the binding signal (RPM ratio (pull-down/input)) stood at 0.244.

(Values after PMC12820563.)
